Some of the results follow.

For the assay, the target named is T1, MBP-FoxP1dN (Mus musculus, UniProt P58462 326-579).
T1 sequence: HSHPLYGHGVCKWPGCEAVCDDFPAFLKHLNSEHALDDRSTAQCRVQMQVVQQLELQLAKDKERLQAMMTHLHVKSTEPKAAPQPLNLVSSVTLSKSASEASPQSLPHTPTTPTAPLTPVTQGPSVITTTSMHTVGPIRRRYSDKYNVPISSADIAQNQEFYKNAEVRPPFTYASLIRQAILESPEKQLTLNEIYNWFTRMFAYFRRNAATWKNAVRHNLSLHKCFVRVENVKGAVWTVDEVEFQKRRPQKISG
The assay is described as follows: PD-seq (MBP pull-down with sequencing); 20 mM Tris-HCl pH 7.5, 100 mM NaCl, 1.5 mM MgCl2, 0.4 uM protein, 0.1 uM dsDNA library, 30 min, room temperature, amylose pull-down; high values mean tight binding. Conditions: protein: recombinant; tags: His6-MBP; chain copies: 2; dsDNA, one strand shown. Summed up:
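In Tris pH 7.5 buffer with NaCl and MgCl2, 0.4 µM His6-MBP-tagged mouse FoxP3 or FoxP1 fragment lacking the N-terminus, from E. coli, met 0.1 µM Klenow-filled double-stranded degenerate DNA library for 30 min at room temperature. Three washes on amylose resin followed capture of the complexes, then proteinase K release of DNA, PCR barcoding and Illumina sequencing. Binding is taken as pooled-replicate reads-per-million enrichment of pull-down relative to input.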
Turning to “GATGATTGTTCTCCCAGCTGATGAATTTTGGGTTTCGAGTAAACAAATTTTCCTAATCTTTCTGTTCAAGCGCCATCTAC”, the binding signal was 0.87 RPM ratio (pull-down/input). Under “GATGATTGTTCTCCCAGCTGATGAATTTGAGGTCTCGAGTAAACAAATTTTCCTAATCTTTCTGTTCAAGCGCCATCTAC” stands 0.712 RPM ratio (pull-down/input). With “GATGATTGTTCTCCCAGCTGATGAATTTTGGTTATCGAGTAAACAAATTTTCCTAATCTTTCTGTTCAAGCGCCATCTAC” the figure was 1.17 RPM ratio (pull-down/input); with “GATGATTGTTCTCCCAGCTGATGAATTGAGGGGTTCGAGTAAACAAATTTTCCTAATCTTTCTGTTCAAGCGCCATCTAC”, 0.794 RPM ratio (pull-down/input); with “GATGATTGTTCTCCCAGCTGATGAATTGTGTTGATCGAGTAAACAAATTTTCCTAATCTTTCTGTTCAAGCGCCATCTAC”, 2.46 RPM ratio (pull-down/input). Under “GATGATTGTTCTCCCAGCTGATGAATTCTCCCGTTCGAGTAAACAAATTTTCCTAATCTTTCTGTTCAAGCGCCATCTAC” stands 0.944 RPM ratio (pull-down/input). As to “GATGATTGTTCTCCCAGCTGATGAATTCACCGTCTCGAGTAAACAAATTTTCCTAATCTTTCTGTTCAAGCGCCATCTAC”, the binding signal was 0.859 RPM ratio (pull-down/input).

Consider “GATGATTGTTCTCCCAGCTGATGAATTGTTAATCTCGAGTAAACAAATTTTCCTAATCTTTCTGTTCAAGCGCCATCTAC”, for which the binding signal is 1.08 RPM ratio (pull-down/input). On to “GATGATTGTTCTCCCAGCTGATGAATTTTAGAAGTCGAGTAAACAAATTTTCCTAATCTTTCTGTTCAAGCGCCATCTAC”, for which the binding signal was 0.862 RPM ratio (pull-down/input). With “GATGATTGTTCTCCCAGCTGATGAATTTCACCTCTCGAGTAAACAAATTTTCCTAATCTTTCTGTTCAAGCGCCATCTAC” the figure was 0.796 RPM ratio (pull-down/input); with “GATGATTGTTCTCCCAGCTGATGAATTATCGTGATCGAGTAAACAAATTTTCCTAATCTTTCTGTTCAAGCGCCATCTAC”, 1.04 RPM ratio (pull-down/input). For “GATGATTGTTCTCCCAGCTGATGAATTCACCACCTCGAGTAAACAAATTTTCCTAATCTTTCTGTTCAAGCGCCATCTAC”, the binding signal is 0.866 RPM ratio (pull-down/input). Take “GATGATTGTTCTCCCAGCTGATGAATTAATTGAATCGAGTAAACAAATTTTCCTAATCTTTCTGTTCAAGCGCCATCTAC”: the binding signal is 0.962 RPM ratio (pull-down/input).

On to “GATGATTGTTCTCCCAGCTGATGAATTCGGTCGCTCGAGTAAACAAATTTTCCTAATCTTTCTGTTCAAGCGCCATCTAC”, for which the binding signal was 0.816 RPM ratio (pull-down/input). For the sequence “GATGATTGTTCTCCCAGCTGATGAATTCCTGCCTTCGAGTAAACAAATTTTCCTAATCTTTCTGTTCAAGCGCCATCTAC”, the binding signal is 0.874 RPM ratio (pull-down/input).

Consider “GATGATTGTTCTCCCAGCTGATGAATTTTGTTTCTCGAGTAAACAAATTTTCCTAATCTTTCTGTTCAAGCGCCATCTAC”, for which the binding signal was 1.71 RPM ratio (pull-down/input). Turning to “GATGATTGTTCTCCCAGCTGATGAATTATATTGCTCGAGTAAACAAATTTTCCTAATCTTTCTGTTCAAGCGCCATCTAC”, the binding signal is 1.21 RPM ratio (pull-down/input). Turning to “GATGATTGTTCTCCCAGCTGATGAATTCTCATCGTCGAGTAAACAAATTTTCCTAATCTTTCTGTTCAAGCGCCATCTAC”, the binding signal was 0.855 RPM ratio (pull-down/input).

In the case of “GATGATTGTTCTCCCAGCTGATGAATTTATGCGCTCGAGTAAACAAATTTTCCTAATCTTTCTGTTCAAGCGCCATCTAC”, the binding signal is 1.08 RPM ratio (pull-down/input).

Regarding “GATGATTGTTCTCCCAGCTGATGAATTTGTTCTATCGAGTAAACAAATTTTCCTAATCTTTCTGTTCAAGCGCCATCTAC”, the binding signal is 1.16 RPM ratio (pull-down/input). Under “GATGATTGTTCTCCCAGCTGATGAATTATGCTCTTCGAGTAAACAAATTTTCCTAATCTTTCTGTTCAAGCGCCATCTAC” stands 1.03 RPM ratio (pull-down/input). With “GATGATTGTTCTCCCAGCTGATGAATTTAACGCATCGAGTAAACAAATTTTCCTAATCTTTCTGTTCAAGCGCCATCTAC” the figure was 1.16 RPM ratio (pull-down/input); with “GATGATTGTTCTCCCAGCTGATGAATTGGAAACTTCGAGTAAACAAATTTTCCTAATCTTTCTGTTCAAGCGCCATCTAC”, 0.827 RPM ratio (pull-down/input).

For the sequence “GATGATTGTTCTCCCAGCTGATGAATTATGCGCGTCGAGTAAACAAATTTTCCTAATCTTTCTGTTCAAGCGCCATCTAC”, the binding signal was 1.08 RPM ratio (pull-down/input). On to “GATGATTGTTCTCCCAGCTGATGAATTCCACATCTCGAGTAAACAAATTTTCCTAATCTTTCTGTTCAAGCGCCATCTAC”, for which the binding signal was 0.827 RPM ratio (pull-down/input). Consider “GATGATTGTTCTCCCAGCTGATGAATTTTCTGCATCGAGTAAACAAATTTTCCTAATCTTTCTGTTCAAGCGCCATCTAC”, for which the binding signal was 1.28 RPM ratio (pull-down/input). With “GATGATTGTTCTCCCAGCTGATGAATTTCACCGGTCGAGTAAACAAATTTTCCTAATCTTTCTGTTCAAGCGCCATCTAC” the figure was 0.751 RPM ratio (pull-down/input); with “GATGATTGTTCTCCCAGCTGATGAATTTAAACACTCGAGTAAACAAATTTTCCTAATCTTTCTGTTCAAGCGCCATCTAC”, 1.12 RPM ratio (pull-down/input). For “GATGATTGTTCTCCCAGCTGATGAATTATAAGAGTCGAGTAAACAAATTTTCCTAATCTTTCTGTTCAAGCGCCATCTAC”, the binding signal is 0.897 RPM ratio (pull-down/input). On to “GATGATTGTTCTCCCAGCTGATGAATTTGGAGTCTCGAGTAAACAAATTTTCCTAATCTTTCTGTTCAAGCGCCATCTAC”, for which the binding signal is 0.826 RPM ratio (pull-down/input). With “GATGATTGTTCTCCCAGCTGATGAATTCCAATCCTCGAGTAAACAAATTTTCCTAATCTTTCTGTTCAAGCGCCATCTAC” the figure was 0.754 RPM ratio (pull-down/input); with “GATGATTGTTCTCCCAGCTGATGAATTCCATGTCTCGAGTAAACAAATTTTCCTAATCTTTCTGTTCAAGCGCCATCTAC”, 0.818 RPM ratio (pull-down/input).
